The values below come from publication PMC5791736.

Amino acid sequences for entries named in this document (tags omitted). A change or cut given only in a name is not applied to a line headed by its entry.
UniProt Q8TDY2: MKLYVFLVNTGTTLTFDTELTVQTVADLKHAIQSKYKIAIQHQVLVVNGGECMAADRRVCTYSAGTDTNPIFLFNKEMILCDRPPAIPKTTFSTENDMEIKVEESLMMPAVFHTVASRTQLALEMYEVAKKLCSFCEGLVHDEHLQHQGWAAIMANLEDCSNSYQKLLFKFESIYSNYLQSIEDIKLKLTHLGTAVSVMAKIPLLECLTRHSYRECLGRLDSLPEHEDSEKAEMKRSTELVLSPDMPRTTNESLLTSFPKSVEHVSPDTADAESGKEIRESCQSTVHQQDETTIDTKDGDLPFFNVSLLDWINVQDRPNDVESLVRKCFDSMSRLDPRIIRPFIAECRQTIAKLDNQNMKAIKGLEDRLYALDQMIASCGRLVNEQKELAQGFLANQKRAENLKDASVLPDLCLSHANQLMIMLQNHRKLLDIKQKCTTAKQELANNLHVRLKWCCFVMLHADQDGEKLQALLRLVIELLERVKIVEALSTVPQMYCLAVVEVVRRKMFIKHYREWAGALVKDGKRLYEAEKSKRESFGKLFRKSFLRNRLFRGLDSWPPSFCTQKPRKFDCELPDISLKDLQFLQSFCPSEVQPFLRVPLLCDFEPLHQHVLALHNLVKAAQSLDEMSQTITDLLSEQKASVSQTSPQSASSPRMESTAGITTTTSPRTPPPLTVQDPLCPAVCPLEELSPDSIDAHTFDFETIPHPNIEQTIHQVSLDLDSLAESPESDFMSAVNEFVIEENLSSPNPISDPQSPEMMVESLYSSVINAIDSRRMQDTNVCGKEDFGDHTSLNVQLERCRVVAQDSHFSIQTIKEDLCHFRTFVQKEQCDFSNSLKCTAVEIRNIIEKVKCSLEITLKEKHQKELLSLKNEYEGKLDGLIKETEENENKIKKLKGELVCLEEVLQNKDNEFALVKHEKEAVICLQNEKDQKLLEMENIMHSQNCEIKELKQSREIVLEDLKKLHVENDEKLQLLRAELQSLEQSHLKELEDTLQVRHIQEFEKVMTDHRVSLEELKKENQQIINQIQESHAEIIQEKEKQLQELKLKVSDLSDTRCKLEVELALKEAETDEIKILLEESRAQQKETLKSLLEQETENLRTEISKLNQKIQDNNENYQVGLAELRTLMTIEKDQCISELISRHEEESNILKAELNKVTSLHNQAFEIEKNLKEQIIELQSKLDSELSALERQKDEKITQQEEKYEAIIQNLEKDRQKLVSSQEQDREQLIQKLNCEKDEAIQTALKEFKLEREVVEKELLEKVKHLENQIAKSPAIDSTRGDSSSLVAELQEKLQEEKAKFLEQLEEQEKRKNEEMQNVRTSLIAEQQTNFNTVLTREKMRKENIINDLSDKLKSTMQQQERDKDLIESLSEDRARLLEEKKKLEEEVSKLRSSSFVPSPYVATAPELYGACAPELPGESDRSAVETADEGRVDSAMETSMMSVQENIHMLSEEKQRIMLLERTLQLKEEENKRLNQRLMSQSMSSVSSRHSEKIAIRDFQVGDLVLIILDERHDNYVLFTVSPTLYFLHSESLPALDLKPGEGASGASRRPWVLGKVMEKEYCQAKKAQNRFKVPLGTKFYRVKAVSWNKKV

Positions count from the first letter of the chain named. No constants are given. Whether binding was seen depends on the method and setting. For some of these results: Binding seen in cells or lysates may run through a third protein. Some entries that bind do so weakly or less than the wild type. For some of these results: Where a sequence is shown, tags or fusion partners need not be part of it.

In assay [1] the target is T1, NTAP (FLAG-HA)-CCPG1 (human) (UniProt Q9ULG6).
T1 sequence: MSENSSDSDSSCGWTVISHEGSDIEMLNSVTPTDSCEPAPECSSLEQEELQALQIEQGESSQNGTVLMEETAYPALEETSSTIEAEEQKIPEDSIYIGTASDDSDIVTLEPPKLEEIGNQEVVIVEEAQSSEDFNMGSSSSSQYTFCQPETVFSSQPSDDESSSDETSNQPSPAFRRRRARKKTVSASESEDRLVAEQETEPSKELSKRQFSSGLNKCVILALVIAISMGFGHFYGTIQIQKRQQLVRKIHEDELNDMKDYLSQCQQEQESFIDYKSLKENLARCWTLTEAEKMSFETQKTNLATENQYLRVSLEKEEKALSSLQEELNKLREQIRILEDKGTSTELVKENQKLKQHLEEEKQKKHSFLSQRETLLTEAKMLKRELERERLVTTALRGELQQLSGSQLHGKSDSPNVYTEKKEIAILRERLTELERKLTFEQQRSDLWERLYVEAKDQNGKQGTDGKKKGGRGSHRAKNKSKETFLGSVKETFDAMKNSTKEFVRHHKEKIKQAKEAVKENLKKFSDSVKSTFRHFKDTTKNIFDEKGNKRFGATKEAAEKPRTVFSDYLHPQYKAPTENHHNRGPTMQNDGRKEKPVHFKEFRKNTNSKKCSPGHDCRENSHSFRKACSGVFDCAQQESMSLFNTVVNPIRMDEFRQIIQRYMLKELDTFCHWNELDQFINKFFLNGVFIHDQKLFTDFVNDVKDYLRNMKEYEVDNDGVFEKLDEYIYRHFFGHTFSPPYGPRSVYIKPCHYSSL
Description: co-IP; A549 stably expressing NTAP-CCPG1 or NTAP empty vector, anti-FLAG beads, immunoblot for endogenous proteins. On the technique in general: Immunoblotting shows a protein as a band on a membrane.

Assay [2] addresses T2, CCPG1 (endogenous, A549) (human (endogenous in A549)) (UniProt Q9ULG6).
T2 sequence: T1 sequence
Description: co-IP; endogenous CCPG1 immunoprecipitated from A549 lysate, cells untreated or EBSS starved for 1 hr; negative control IgG; immunoblot.

In assay [3] the target is T3, myc-CCPG1 (full-length, 6x myc) (human) (UniProt Q9ULG6).
T3 sequence: T1 sequence
As to the kind of experiment: co-IP; HEK293 lysates of singly transfected cells mixed, anti-myc agarose beads, IGEPAL IP buffer, 4°C, 15 h; immunoblot.

The target in assay [4] is T3, myc-CCPG1 (full-length, 6x myc) (human). Description: co-IP; HeLa ΔCCPG1-1 cells transfected with FLAG-FIP200 and myc-CCPG1 variants, immunoprecipitated on myc; immunoblot.
Assay [5] concerns the target T4, myc-CCPG1 mtFIR1+2 (full-length) (human) (UniProt Q9ULG6).
T4 sequence: T1 sequence with S22A, D23A, I24A, E25A, S104A, D105A, I106A, L109A
The description is as above.

The target of assay [6] is T5, GFP-CCPG1 (full-length) (human) (UniProt Q9ULG6).
T5 sequence: T1 sequence
Description: co-IP; HEK293 lysates of singly transfected cells mixed, GFP-Trap magnetic beads, IGEPAL IP buffer, 4°C, 2 h; immunoblot.

For assay [7], the target named is T6, GFP-CCPG1 mtLIR W14A I17A (human) (UniProt Q9ULG6).
T6 sequence: T1 sequence with W14A, I17A
The assay is described as above.

Another assay has as its target T7, myc-CCPG1 NTD (human) (UniProt Q9ULG6).
T7 sequence: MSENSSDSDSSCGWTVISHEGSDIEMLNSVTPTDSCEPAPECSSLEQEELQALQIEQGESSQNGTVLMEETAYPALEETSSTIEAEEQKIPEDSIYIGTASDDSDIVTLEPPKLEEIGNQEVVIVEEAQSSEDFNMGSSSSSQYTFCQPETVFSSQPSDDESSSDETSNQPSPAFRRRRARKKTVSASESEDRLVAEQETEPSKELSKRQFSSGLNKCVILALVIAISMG
As to the kind of experiment: co-IP; HEK293 lysates of singly transfected cells mixed, anti-myc agarose beads, IGEPAL IP buffer, 4°C, 15 h; immunoblot.

Assay [8] has as its target T8, myc-CCPG1 NTD truncated from residue 146 onward (human) (UniProt Q9ULG6).
T8 sequence: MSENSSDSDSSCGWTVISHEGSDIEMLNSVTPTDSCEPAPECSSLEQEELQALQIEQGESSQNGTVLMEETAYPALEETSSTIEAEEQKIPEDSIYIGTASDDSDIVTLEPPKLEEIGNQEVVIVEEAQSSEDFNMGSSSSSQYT
Described as above.

In assay [9] the target is T9, myc-CCPG1 NTD with deletion of aa 107–112 (human) (UniProt Q9ULG6).
T9 sequence: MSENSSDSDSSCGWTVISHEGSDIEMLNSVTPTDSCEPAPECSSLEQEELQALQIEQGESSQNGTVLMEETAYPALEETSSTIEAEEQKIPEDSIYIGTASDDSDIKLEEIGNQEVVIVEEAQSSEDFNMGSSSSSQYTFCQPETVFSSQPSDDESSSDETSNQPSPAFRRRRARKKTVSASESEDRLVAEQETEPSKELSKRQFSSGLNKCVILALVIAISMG
The description is as above.

For assay [10], the target named is T10, myc-CCPG1 NTD with deletion of aa 82–119 (human) (UniProt Q9ULG6).
T10 sequence: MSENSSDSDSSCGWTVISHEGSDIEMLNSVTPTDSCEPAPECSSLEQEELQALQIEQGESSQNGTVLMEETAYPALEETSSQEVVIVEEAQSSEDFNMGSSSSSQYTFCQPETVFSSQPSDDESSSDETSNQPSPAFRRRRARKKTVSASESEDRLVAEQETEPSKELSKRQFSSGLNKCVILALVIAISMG
The assay is described as above.

Assay [11] concerns the target T11, myc-CCPG1 NTD with deletion of aa 99–105 (human) (UniProt Q9ULG6).
T11 sequence: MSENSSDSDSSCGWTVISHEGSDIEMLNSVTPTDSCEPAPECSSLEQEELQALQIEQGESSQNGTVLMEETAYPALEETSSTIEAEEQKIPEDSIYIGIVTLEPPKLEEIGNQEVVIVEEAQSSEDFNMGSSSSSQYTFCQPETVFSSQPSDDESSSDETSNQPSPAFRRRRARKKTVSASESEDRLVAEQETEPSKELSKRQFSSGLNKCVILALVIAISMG
Described as above.

Assay [12] concerns the target T12, GST-CCPG1 NTD (bacterial) (1-230) (human) (UniProt Q9ULG6).
T12 sequence: T7 sequence
Description: pull-down; GST-CCPG1 NTD pre-purified on glutathione Sepharose beads, incubated with purified recombinant protein (His-GABARAP or His-FIP200) in IGEPAL IP buffer, 4°C; immunoblot; both purified.

For assay [13], the target named is T13, CCPG1 peptide array region A (aa 101–115) (human) (UniProt Q9ULG6).
T13 sequence (peptide): SDDSDIVTLEPPKLE
As to the kind of experiment: peptide or protein array; cellulose membrane spotted with 15-mer CCPG1 peptides (1-55), blocked with 5% BSA/TBST, probed with recombinant FIP200 for 1 hour, detected with rabbit anti-FIP200 and HRP secondary; both purified.

The target of assay [14] is T14, CCPG1 peptide array region B (aa 169–187) (human) (UniProt Q9ULG6).
T14 sequence (peptide): NQPSPAFRRRRARKKTVSA
The description is as above.

Assay [15] concerns the target T15, CCPG1 peptide array region C (aa 205–223) (human) (UniProt Q9ULG6).
T15 sequence (peptide): ELSKRQFSSGLNKCVILAL
The assay is described as above.

For “FIP200 (endogenous, A549) (from UniProt Q8TDY2 1-1594)”, the binding entry in [1] and in assay [2] was “binds” throughout.

On to “FLAG-FIP200 (1,279–1,594) (from UniProt Q8TDY2 1279-1594) (domain or fragment)”, for which the binding result in assay [3] is given as “binds”.

With “FLAG-FIP200 (p3xFLAG-CMV10-hFIP200, human FIP200 1-1594) (from UniProt Q8TDY2 1-1594)”, the binding result in assay [4] is recorded as “binds”; in [5], “no binding”; in assay [6], “binds”; in assay [7], “binds”; in the assay with myc-CCPG1 NTD (human), “binds”; in assay [8] it was “binds”. Also, the binding result in [9], in assay [10] and in assay [11] was “no binding” each time.

For “Recombinant His-FIP200 (from UniProt Q8TDY2 1-1594)”, the binding result in [12] is listed as “binds”; in assay [13], “binds”; in assay [14], “no binding”; in assay [15] it was “no binding”.
